{"source": "the supplement of paper PMC9135407", "test_system": "primary human hepatic stellate cells (donor 1)", "experiment": "scaled lipid accumulation score (0 = DMSO-like, 1 = nortriptyline-like); higher = stronger HSC inactivation (lipid re-accumulation), active = hit call of the paper", "conditions": "48 h", "procedure": "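Primary lipid accumulation screen in primary human hepatic stellate cell myofibroblasts (donor 1, passage 8) in 384-well plates. 100 nL of library compound was pin-transferred into 30 µL medium in duplicate, and cells were treated for 48 h. The 'Scaled' score combines distance from plate baseline, toxicity and reproducibility penalties, and is normalised to nortriptyline (positive) and DMSO (negative) controls on each plate. A hit is defined as scaled >0.85 or among the top 3 wells per plate.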", "key": {"[1]": {"conditions": "library stock concentration: 80 uM"}, "[2]": {"conditions": "library stock concentration: 400 uM"}, "[3]": {"conditions": "library stock concentration: 2 mM"}, "[4]": {"conditions": "library stock concentration: 3.33 mM"}, "[5]": {"conditions": "library stock concentration: 10 mM"}}, "note": "“And” between values parts separate entries of the source, which are not always exact repeats. Equal values may be shown once. Where a name gives a salt, the structure may show the parent alone. About 620 (11%) of roughly 5,800 compounds showed activity.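 The calls were made as follows: active = score above a cut-off or among the top three wells of a plate; in these data no inactive exceeds 0.85.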 This is a selection; strong and weak results do not stand in their true shares.", "data": [{"smiles": "C=CC(=O)Nc1ccc2ncnc(Nc3ccc(OCc4cccc(F)c4)c(Cl)c3)c2c1", "values": [{"measurement": "scaled lipid accumulation score", "setting": "[1]", "value": "inactive: ≤ -0.016"}, {"measurement": "scaled lipid accumulation score", "setting": "[2]", "value": "inactive: ≤ -0.016"}, {"measurement": "scaled lipid accumulation score", "setting": "[3]", "value": "inactive: ≤ -0.016"}, {"measurement": "scaled lipid accumulation score", "setting": "[4]", "value": "inactive: 0.132"}, {"measurement": "scaled lipid accumulation score", "setting": "[5]", "value": "inactive: 0.378 and inactive: 0.75"}]}, {"smiles": "CC(Oc1c(Cl)cccc1Cl)C1=NCCN1", "note": "(stereo not drawn) [Lofexidine]", "values": [{"measurement": "scaled lipid accumulation score", "setting": "library stock concentration: 7.7 mM", "value": "inactive: 0.02"}]}, {"smiles": "CC(Oc1c(Cl)cccc1Cl)C1=NCCN1", "note": "(stereo not drawn)", "values": [{"measurement": "scaled lipid accumulation score", "setting": "[5]", "value": "inactive: ≤ 0 and inactive: 0.046"}]}, {"smiles": "CC1=C(CC(=O)O)c2cc(F)ccc2/C1=C\\c1ccc([S+](C)[O-])cc1", "note": "(stereo not drawn) [Sulindac]", "values": [{"measurement": "scaled lipid accumulation score", "value": "inactive: ≤ 0"}, {"measurement": "scaled lipid accumulation score", "setting": "library stock concentration: 1 mM", "value": "inactive: ≤ 0"}, {"measurement": "scaled lipid accumulation score", "setting": "[4]", "value": "inactive: 0.011"}, {"measurement": "scaled lipid accumulation score", "setting": "[5]", "value": "inactive: ≤ 0 and inactive: 0.001 and inactive: 0.022"}]}, {"smiles": "CN(C)CCCO[C@@H]1[C@H]2OC(C)(C)O[C@H]2O[C@@H]1[C@H](O)CO", "note": "[Amiprilose hydrochloride]", "values": [{"measurement": "scaled lipid accumulation score", "value": "inactive: ≤ 0"}]}, {"smiles": "CN(C)CCCO[C@@H]1[C@H]2OC(C)(C)O[C@H]2O[C@@H]1[C@H](O)CO", "note": "[Amiprilose]", "values": [{"measurement": "scaled lipid accumulation score", "setting": "library stock concentration: 5.9 mM", "value": "inactive: ≤ 0"}, {"measurement": "scaled lipid accumulation score", "setting": "[5]", "value": "inactive: ≤ -0.027"}]}, {"smiles": "C[C@]12CC[C@@H]3c4ccc(O)cc4CC[C@H]3[C@@H]1C[C@@H](O)[C@@H]2O", "note": "[Estriol]", "values": [{"measurement": "scaled lipid accumulation score", "value": "inactive: ≤ 0"}, {"measurement": "scaled lipid accumulation score", "setting": "[4]", "value": "inactive: ≤ 0"}, {"measurement": "scaled lipid accumulation score", "setting": "library stock concentration: 6.9 mM", "value": "inactive: ≤ 0 and inactive: ≤ -0.001"}, {"measurement": "scaled lipid accumulation score", "setting": "[5]", "value": "inactive: ≤ 0"}]}, {"smiles": "Cc1nc(N)sc1-c1ccnc(Nc2ccc(N3CCOCC3)cc2)n1", "values": [{"measurement": "scaled lipid accumulation score", "setting": "[2]", "value": "inactive: ≤ -0.005"}, {"measurement": "scaled lipid accumulation score", "setting": "[3]", "value": "inactive: ≤ -0.005"}, {"measurement": "scaled lipid accumulation score", "setting": "[4]", "value": "inactive: ≤ 0"}]}, {"smiles": "CCC[C@H](NC(=O)[C@@H]1[C@H]2CCC[C@H]2CN1C(=O)[C@@H](NC(=O)[C@@H](NC(=O)c1cnccn1)C1CCCCC1)C(C)(C)C)C(=O)C(=O)NC1CC1", "note": "[Telaprevir (VX-950)]", "values": [{"measurement": "scaled lipid accumulation score", "setting": "[4]", "value": "inactive: ≤ 0"}, {"measurement": "scaled lipid accumulation score", "setting": "[5]", "value": "inactive: ≤ 0"}]}, {"smiles": "CCc1cccc2c3c([nH]c12)C(CC)(CC(=O)O)OCC3", "note": "(stereo not drawn) [Etodolac]", "values": [{"measurement": "scaled lipid accumulation score", "value": "inactive: ≤ 0"}, {"measurement": "scaled lipid accumulation score", "setting": "[4]", "value": "inactive: ≤ 0"}, {"measurement": "scaled lipid accumulation score", "setting": "library stock concentration: 7 mM", "value": "inactive: ≤ 0"}, {"measurement": "scaled lipid accumulation score", "setting": "[5]", "value": "inactive: 0.142 and inactive: ≤ 0 and inactive: ≤ -0.07"}]}, {"smiles": "Cc1noc(NS(=O)(=O)c2ccc(N)cc2)c1C", "note": "[Sulfisoxazole]", "values": [{"measurement": "scaled lipid accumulation score", "value": "inactive: 0.048"}, {"measurement": "scaled lipid accumulation score", "setting": "[4]", "value": "inactive: ≤ 0"}, {"measurement": "scaled lipid accumulation score", "setting": "library stock concentration: 7.5 mM", "value": "inactive: ≤ 0"}, {"measurement": "scaled lipid accumulation score", "setting": "[5]", "value": "inactive: ≤ 0 and inactive: 0.037 and inactive: 0.113"}]}, {"smiles": "CCCCC(=O)O[C@]1(C(=O)CO)CC[C@H]2[C@@H]3CCC4=CC(=O)CC[C@]4(C)[C@H]3[C@@H](O)C[C@@]21C", "note": "[Westcort]", "values": [{"measurement": "scaled lipid accumulation score", "setting": "[5]", "value": "inactive: 0.094"}]}, {"smiles": "CCCCC(=O)O[C@]1(C(=O)CO)CC[C@H]2[C@@H]3CCC4=CC(=O)CC[C@]4(C)[C@H]3[C@@H](O)C[C@@]21C", "note": "[Hydrocortisone valerate]", "values": [{"measurement": "scaled lipid accumulation score", "setting": "library stock concentration: 4.5 mM", "value": "inactive: ≤ 0"}]}, {"smiles": "CC[N+](CC)(CC)CCC(O)(c1ccccc1)C1CCCCC1", "note": "(stereo not drawn) [Tridihexethyl chloride]", "values": [{"measurement": "scaled lipid accumulation score", "value": "inactive: ≤ 0"}]}, {"smiles": "C[C@@H]1CN(CC(=O)Nc2ccc3c(c2)Cc2cccc(-c4cc(=O)cc(N5CCOCC5)o4)c2S3)C[C@H](C)O1", "values": [{"measurement": "scaled lipid accumulation score", "setting": "[1]", "value": "inactive: ≤ -0.006"}, {"measurement": "scaled lipid accumulation score", "setting": "[2]", "value": "inactive: ≤ -0.009"}, {"measurement": "scaled lipid accumulation score", "setting": "[3]", "value": "inactive: ≤ -0.009"}, {"measurement": "scaled lipid accumulation score", "setting": "[4]", "value": "inactive: ≤ 0"}, {"measurement": "scaled lipid accumulation score", "setting": "[5]", "value": "inactive: 0.001 and inactive: 0.074"}]}, {"smiles": "O=C1CC2(CCCC2)CC(=O)N1CCNCC1COc2ccccc2O1", "note": "(stereo not drawn)", "values": [{"measurement": "scaled lipid accumulation score", "setting": "[5]", "value": "inactive: ≤ 0 and inactive: 0.017"}]}, {"smiles": "NC[C@@H]1O[C@H](c2ccccc2)Cc2c1ccc(O)c2O", "values": [{"measurement": "scaled lipid accumulation score", "setting": "[5]", "value": "inactive: ≤ 0"}]}, {"smiles": "CO/N=C(\\C(=O)N[C@@H]1C(=O)N2C(C(=O)O)=C(C[N+]3(C)CCCC3)CS[C@H]12)c1csc(N)n1", "note": "[Cefepime hydrochloride]", "values": [{"measurement": "scaled lipid accumulation score", "value": "inactive: ≤ 0"}]}, {"smiles": "CCOC(=O)[C@H](CCc1ccccc1)N[C@@H](C)C(=O)N1CCC[C@H]1C(=O)O", "note": "[Enalapril maleate]", "values": [{"measurement": "scaled lipid accumulation score", "value": "inactive: ≤ 0"}, {"measurement": "scaled lipid accumulation score", "setting": "[5]", "value": "inactive: ≤ 0"}]}, {"smiles": "CCOC(=O)[C@H](CCc1ccccc1)N[C@@H](C)C(=O)N1CCC[C@H]1C(=O)O", "note": "[Enalapril Maleate]", "values": [{"measurement": "scaled lipid accumulation score", "setting": "[4]", "value": "inactive: 0.026"}, {"measurement": "scaled lipid accumulation score", "setting": "[5]", "value": "inactive: ≤ 0"}]}, {"smiles": "CCOC(=O)[C@H](CCc1ccccc1)N[C@@H](C)C(=O)N1CCC[C@H]1C(=O)O", "values": [{"measurement": "scaled lipid accumulation score", "setting": "[5]", "value": "inactive: ≤ 0"}]}, {"smiles": "CCOC(=O)[C@H](CCc1ccccc1)N[C@@H](C)C(=O)N1CCC[C@H]1C(=O)O", "note": "[Enalapril]", "values": [{"measurement": "scaled lipid accumulation score", "setting": "library stock concentration: 5.3 mM", "value": "inactive: ≤ 0"}]}]}
